Measured values: PubChem BioAssay AID1240 (Sanford-Burnham Center for Chemical Genomics, 2008)
In all, about 50,000 compounds went through this assay and about 800 (1.6%) showed an effect of 50% or more. The list shows a part of the results.

target: Bcl-2-like protein 10 (Homo sapiens) (UniProt Q9HD36); assay: TR3 peptide-Bcl-B binding displacers, biochemical primary FP assay, phenotype converters (AID 1240); conditions: GST-Bcl-B / FITC-TR3 peptide fluorescence polarization; stronger effect = higher value; compound at 3.75 mg/L;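 further: 0% = Bcl-B with tracer peptide and DMSO and 100% = tracer peptide lacking Bcl-B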
Chain of UniProt Q9HD36 (Q9HD36 whole entry, looked up): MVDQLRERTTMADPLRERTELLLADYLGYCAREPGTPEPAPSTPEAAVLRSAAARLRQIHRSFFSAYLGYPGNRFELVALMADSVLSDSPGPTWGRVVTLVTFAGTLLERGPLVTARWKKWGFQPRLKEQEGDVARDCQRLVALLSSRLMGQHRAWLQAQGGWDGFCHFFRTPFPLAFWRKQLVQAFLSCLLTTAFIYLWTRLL

Structure (SMILES) | displacement
OC(Cc1ccccc1)(c1ccc(F)cc1)C(CN1CCOCC1)c1ccccc1 (stereo not given) | 2.8%
O=C(CC(c1ccccc1)c1ccccc1)Nc1ccc2ccccc2c1 | -7.3%
COc1ccc(/C=C2\SC(=S)N(CC(=O)Nc3nccs3)C2=O)cc1OC | 39.3%
Fc1ccccc1OCCOCCN1CCCCC1 | -2.6%
CCOc1cccc(N2C(=O)/C(=C/c3cc(Br)c(O)c(OCC)c3)C(=O)NC2=S)c1 | 3.1%
Cc1nn(-c2ccccc2)c(C)c1/C=N\N1CCN(c2ccccc2)CC1 | -0.3%
N#C/C(=C/c1ccc(-c2ccc3c(c2)C(=O)NC3=O)o1)C(N)=O | 140%
O=C1NCC(O)=C1C=NCc1ccc(Cl)cc1 | -8.1%
COc1ccc(CCn2c(O)c(C3=c4cc(Br)ccc4=NC3=O)sc2=S)cc1OC | -11.3%
COc1ccc(CCNC2CC(=O)N(c3ccccc3)C2=O)cc1OC (stereo not given) | -9.8%
COc1cc(/C=N/n2cnnc2)cc(I)c1O | 0.3%
O=[N+]([O-])c1cc(S(=O)(=O)Nc2ccc(Cl)cc2)ccc1Cl | 11.1%
Cc1cc2oc(=O)cc(C)c2cc1NC(=O)COc1ccccc1 | 9.8%
Cc1ccsc1/C=c1\sc2nc3ccccc3n2c1=O | -8.5%
CCOc1cc(/C=N/NC(=O)c2cc(-c3ccc(Cl)cc3)n[nH]2)ccc1O | -14.2%
CC(CC(=O)Nc1ccccc1)c1ccccc1 (stereo not given) | 11.4%
Cc1ccc(-n2ncnc2-c2ccccc2C)cc1Cl | -8.7%
COC(=O)C(NS(=O)(=O)c1ccccc1)C(C)C (stereo not given) | -12%
COc1ccc2nc(NC(=O)Cc3ccccc3)sc2c1 | 3%
Cc1ccc(C(=O)Nc2ccccc2C(=O)NCCO)cc1 | 8.5%
COc1ccc(OC)c(/C=C2\SC(N3CCCCC3)=NC2=O)c1 | -10.4%
Cn1/c(=N/N=C/c2cccc(Cl)c2Cl)sc2ccccc21 | 17.1%
CN1CCN(Cn2c(O)c(N=NC(=O)CSc3nc4ccccc4o3)c3ccccc32)CC1 | 17.5%
Cc1cc2c3c(ccc(C)c3n1)N=CN2c1ccccc1 | -3.3%

Structure (SMILES) | displacement
COc1ccc(N2C(=O)c3cccc4c(N5CCNCC5)ccc(c34)C2=O)cc1 | 37.2%
Cc1ccsc1/C=C(\C#N)c1nc(-c2ccc3c(c2)OCO3)cs1 | -27%
COc1ccc(/C=c2\sc3n(c2=O)C(c2ccc(OC)cc2)C(C(=O)OC(C)C)=C(C)N=3)cc1 (stereo not given) | 10%
CCCC(=O)C1=C(N2CCCCC2)CC(C)(C)CC1=O | -0.9%
COc1ccc(Br)cc1-n1c(=O)[nH]c2cc(C(F)(F)F)ccc21 | -50.3%
COc1ccc(NC(=O)/C(=C\c2cccnc2)NC(=O)c2ccccc2)cc1 | -9.6%
COc1ccc(S(=O)(=O)N(CC(=O)Nc2ccc(Cl)cc2C)Cc2ccccc2)cc1OC | -18.2%
O=C(Cc1ccccc1)Nc1ccccc1I | -7.4%
Cc1c(NC(NC(=O)COc2ccccc2)C(Cl)(Cl)Cl)c(=O)n(-c2ccccc2)n1C (stereo not given) | 10.8%
COc1ccccc1C(=O)N1CCN(Cc2ccccc2F)CC1 | -1.6%
CCCCNC(=S)NNC(=O)C12CC3CC(CC(C3)C1)C2 | -13.1%
Cc1cc(C)n(C(=O)CCCOc2ccc(Cl)cc2Cl)n1 | -2.5%
CCN(CC)C(=O)Cn1nc(C)c2ccccc2c1=O | -8.5%
O=C(c1cc2ccccc2o1)N1CCN(c2ccc([N+](=O)[O-])cc2)CC1 | 16.1%
O=C(NC(=S)Nc1cccc(-c2nc3ccccc3o2)c1)c1ccco1 | 17.3%
COc1cccc(C(=O)N2CCN(Cc3ccc(OC)c(Br)c3)CC2)c1 | 0.9%
COc1ccc(S(=O)(=O)Nc2ccc(N3CCOCC3)cc2)cc1[N+](=O)[O-] | -5.8%
COc1cccc(N=c2ssc3c2-c2ccc(OC)cc2NC3(C)C)c1 | -10.3%
COc1cccc(CN2CCN(S(=O)(=O)c3ccccc3)CC2)c1 | -15.4%
COC(=O)c1cccc(NC(=O)c2c(Cl)ccc(Cl)c2OC)c1 | 1.6%
O=C(Nc1cc([N+](=O)[O-])ccc1F)C(c1ccccc1)c1ccccc1 | 0.9%
O=C1c2ccccc2C(=O)N1c1ccc(OCC(O)COC2CCCCC2)cc1 (stereo not given) | -17.6%
CC(=O)c1ccc(N2C(=O)CC(N3CCOCC3)C2=O)cc1 (stereo not given) | -2.6%
N#C/C(=C\c1ccc(-c2ccc(Br)cc2)o1)C(=O)N1CCCCC1 | -19.3%

Structure (SMILES) | displacement
COc1ccc(NC(=O)CSc2ccccn2)cc1 | 7.8%
COc1cc(OC)cc(C(=O)N2CCCC2)c1 | -4.8%
O=C(Nc1ccc(I)cc1Cl)c1cccnc1 | -2.6%
COc1cc(NS(=O)(=O)c2ccc(N/C=C\C(=O)c3ccc4ccccc4c3)cc2)nc(OC)n1 | 15.7%
CC(C)CN1C(=O)c2ccc(C(=O)Nc3ccccc3C(=O)O)cc2C1=O | -11.7%
COc1cc(C(=O)N2N=C(c3ccccc3)CC2c2ccccc2)cc(OC)c1OC (stereo not given) | 2.5%
Cc1cc(C)c(NC(=O)C2C3C4CCC(C4)C23)c(C)c1 (stereo not given) | -8.8%
CCOC(=O)c1c(C)nc2n(/N=C/c3ccccc3)c3ccccc3n12 | 6.6%
CCN(CC)CCOC(=O)c1ccc(NC(=O)CCN2C(=O)S/C(=C\c3ccc(OC)cc3)C2=O)cc1 | 10.3%
CCN(CC)S(=O)(=O)c1ccc(NC(=O)c2ccccc2)cc1 | 0.3%
COc1ccc(/C=C/C(=O)O)cc1S(=O)(=O)NCCO | -3.6%
CC(=O)c1cccc(NC(=O)/C(=C/c2cccc3ccccc23)NC(=O)c2ccc(C)cc2)c1 | -6.6%
O=C(Nc1ccc(-c2nc3ccccc3o2)c(O)c1)c1cc2ccccc2oc1=O | -8.9%
O=C1c2ccccc2C(=O)c2c([N+](=O)[O-])ccc(N3CCOCC3)c21 | 2.8%
O=C1OC(c2ccccc2)=C/C1=C/c1ccc(Br)cc1 | 3%
Cc1ccc2oc(-c3cc(NC(=O)c4cc5ccccc5o4)ccc3O)nc2c1 | 9.5%
S=c1nc(COc2ccc(Cl)cc2Cl)[nH][nH]1 | 9.7%
O=C(NCC1(c2ccccc2)CCCC1)C(c1ccccc1)c1ccccc1 | -1.1%
Cc1oc(C(N)=O)cc1COc1ccccc1C(N)=O | 6.9%
COc1ccc(N2C(=O)NC(=O)/C(=C/c3cccc(O)c3)C2=O)cc1 | -6.3%
CC(=O)c1cccc(NC2=C(Cl)C(=O)c3c(Cl)c(Cl)c(Cl)c(Cl)c32)c1 | 32.2%
CN(C)c1ccc(CNC23CN4CN(CN(C4)C2)C3)cc1 | 0.4%
